The values that follow come from PubChem BioAssay (NCI).

Values joined by “and” are separate entries in the source; they are usually repeats but may differ in a detail not shown here. Equal values may be shown once.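 Values below derive from 48-hour exposures of cells grown in 96-well plates, with endpoints linearly interpolated between the two concentrations bracketing the appropriate inhibition level. Abbreviation: GI50, concentration required for 50% inhibition of growth. TGI: concentration producing complete growth inhibition.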

This test deals with NCI-H322M lung. As to the kind of experiment: growth of human tumour cells (NCI), 48 h.
Take `OC1(CCc2ccccc2)COC(C(F)(F)F)(C(F)(F)F)C1` (stereo not drawn): the TGI was more than 100 µM.

On to `COc1cc(OCc2ccc3nc(-c4ccccc4)c(Cl)nc3c2)cc(OC)c1OC`, for which the TGI is more than 100 µM. The same measure, in the same setting: with `COc1cc(/C=C(\C#N)C(=O)c2ccccc2)ccc1OCc1ccccc1` the figure was more than 100 µM. `C/C1=C/C(C)CC(C)OC(=O)C(C)NC(=O)C(Cc2ccc(O)c(I)c2)N(C)C(=O)CNC(=O)C(C)C1` (stereo not drawn) registered a TGI of more than 100 µM.

`O=[N+]([O-])c1cc(Cl)c(Cl)c([N+](=O)[O-])c1Cl`: the GI50 is 2.1 µM and the TGI is 5.68 µM. `CC1=NN(C(=O)CC(=O)Nc2ccc(C)cc2)C(=O)C1N=Nc1ccc(C(=O)O)cc1` (stereo not drawn) showed a TGI of more than 100 µM.

With `O=C1CC(CC(O)[C@@H]2CCCC[C@@H]2O)CC(=O)N1c1ccccc1` (stereo partly drawn), the TGI is more than 100 µM. The molecule `CC(=O)C(I(OS(=O)(=O)c1ccc(C)cc1)c1ccccc1)=P(c1ccccc1)(c1ccccc1)c1ccccc1` had a TGI of more than 100 µM. Same read-out and setting: with `C=C1C(=O)OC2/C=C(\CO)C3OC3C3OC3(C)CC(OC(=O)/C(=C/C)CO)C12` (stereo not drawn) the figure was more than 100 µM; with `CC(=O)C(=[N+]=[N-])C(=O)NCC#N`, more than 10 µM. As to `COc1ccc2c(c1)/C(=C\c1c(C)nc3n1CCS3)C(=O)N2`, the TGI is more than 100 µM. The same measure, in the same setting: with `CC1(C)CN=C(c2ccc3c(c2)Cc2cc(C4=NCC(C)(C)N4)ccc2-3)N1` the figure was 73.8 µM.

`CN(C)C=C1C(=O)c2c(Br)sc(Br)c2C1=O` had a TGI of 51.6 µM. Regarding `Cn1ccnc1CC(C)(O)c1ccccc1` (stereo not drawn), the TGI was more than 100 µM. Consider `O=c1c(C=Nc2ccccc2Cl)c(O)n(-c2ccccc2)c(=O)n1-c1ccccc1`, for which the TGI is more than 100 µM. On the same count and under the same terms, with `COc1ccc2cc(Oc3ccc(Cl)cc3)c(=O)oc2c1` the figure was more than 100 µM. In the case of `O=C1c2ccccc2-c2c1c1ccccc1c(=O)n2CCCNCCCn1ccnc1`, the GI50 was 2.81 µM and the TGI was 12.8 µM. `Cc1c[nH]c2c(O)cc3c(c12)[C@H](CCl)CN3C(=O)c1cc2cc(NC(=O)Nc3ccc4[nH]c(C(=O)N5C[C@@H](CCl)c6c5cc(O)c5[nH]cc(C)c65)cc4c3)ccc2[nH]1`: the GI50 was 23.3 µM and 8.9e-07 µg/mL; the TGI is 71.7 µM and 0.0067 µg/mL. As to `CN1CCN(CCCN)CC1`, the TGI was more than 100 µM. In the case of `CC(=O)Oc1cc2c(n(C)c1=O)-c1ccccc1C2`, the TGI was more than 100 µM. `N#C/C(=C\c1cn(Cc2ccccc2)c2ccccc12)c1nn(-c2ccccc2)c(N)c1C#N` had a TGI of 69.6 µM. For the molecule `CCOC(=O)Nc1nc2ccc(Cn3cccc3)cc2[nH]1`, the TGI is more than 100 µM.

Regarding `COC1CC(C)C(OC)C2=CC(=O)C=C(NC(=O)/C(C)=C/C=C\C(C)C(OC(N)=O)/C(C)=C\C(C)C1OC)C2=O` (stereo not drawn), the TGI came to 17.5 µM. Same read-out and setting: with `Cc1oc2c(c1C)S(=O)(=O)C(C#N)=C(c1ccccc1)N2` the figure was more than 100 µM; with `CC(C)(C)O/C=C1/C(=O)OC2C[C@@H](O[Si](C)(C)C(C)(C)C)CC12` (stereo partly drawn), more than 100 µM; with `NC(=O)C(=Cc1ccc(C(O)P(=O)(O)O)cc1)C(N)=O` (stereo not drawn), more than 100 µM. As for `CC(=O)c1c(C)[nH]c(-c2nc3ccc(N4CCN(C)CC4)cc3[nH]2)c1-c1ccc(OCC2CCOCC2)cc1`, the GI50 is 1.65 µM and the TGI amounted to 23.5 µM. On to `O=C1c2ccccc2C(O)(C(=O)O)C1(O)CC=C(Cl)Cl` (stereo not drawn), for which the TGI was more than 125 µM. Same read-out and setting: with `N=c1oc2ccc([N+](=O)[O-])cc2cc1C(=O)NCc1ccccc1` the figure was more than 100 µM.
